Measurements as given in publication PMC9911399, “Two distinct binding modes provide the RNA-binding protein RbFox with extraordinary sequence specificity”.
Numbering of substitutions follows the chain as printed; changes in the protein carry UniProt numbers. The list shows a part of the results.

T1: RBFOX1 RRM RbFoxmut (Fox-RRM*) (Homo sapiens, UniProt Q9NWB1 109-208, R118D;E147R;N151S;E152T)
T1 sequence: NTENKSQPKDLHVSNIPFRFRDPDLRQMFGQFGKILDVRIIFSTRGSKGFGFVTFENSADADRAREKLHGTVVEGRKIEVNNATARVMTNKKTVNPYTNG

B1: UAGCAUA (DNA:RNA)
RNA: GGGAGACCGGAAUUCAGAUUGUCCUAGCAUAUUAAAUCCCGUCGUAGCCACCA
DNA 1: CAATCTGAATTCCGGTCTCCC
DNA 2: TGGTGGCTACGACGGGATT
B2: CCCAUCG (DNA:RNA)
RNA: GGGAGACCGGAAUUCAGAUUGUCCCCCAUCGUUAAAUCCCGUCGUAGCCACCA
DNA 1: CAATCTGAATTCCGGTCTCCC
DNA 2: TGGTGGCTACGACGGGATT
B3: UACUGGC (DNA:RNA)
RNA: B1 RNA with G27C, C28U, A29G, U30G, A31C
DNA 1: CAATCTGAATTCCGGTCTCCC
DNA 2: TGGTGGCTACGACGGGATT
B4: UUGCCGA (DNA:RNA)
RNA: B1 RNA with A26U, A29C, U30G
DNA 1: CAATCTGAATTCCGGTCTCCC
DNA 2: TGGTGGCTACGACGGGATT
B5: UUCACCC (DNA:RNA)
RNA: B2 RNA with C25U, C26U, U29C, G31C
DNA 1: CAATCTGAATTCCGGTCTCCC
DNA 2: TGGTGGCTACGACGGGATT
B6: UCCCUCA (DNA:RNA)
RNA: B2 RNA with C25U, A28C, G31A
DNA 1: CAATCTGAATTCCGGTCTCCC
DNA 2: TGGTGGCTACGACGGGATT
B7: ACAGAUC (DNA:RNA)
RNA: B1 RNA with U25A, A26C, G27A, C28G, A31C
DNA 1: CAATCTGAATTCCGGTCTCCC
DNA 2: TGGTGGCTACGACGGGATT
B8: UAGAUAG (DNA:RNA)
RNA: B2 RNA with C25U, C26A, C27G, C30A
DNA 1: CAATCTGAATTCCGGTCTCCC
DNA 2: TGGTGGCTACGACGGGATT
B9: AGCGACA (DNA:RNA)
RNA: B2 RNA with C25A, C26G, A28G, U29A, G31A
DNA 1: CAATCTGAATTCCGGTCTCCC
DNA 2: TGGTGGCTACGACGGGATT
B10: GACUCGC (DNA:RNA)
RNA: B2 RNA with C25G, C26A, A28U, U29C, C30G, G31C
DNA 1: CAATCTGAATTCCGGTCTCCC
DNA 2: TGGTGGCTACGACGGGATT
B11: GCUGCUC (DNA:RNA)
RNA: B2 RNA with C25G, C27U, A28G, U29C, C30U, G31C
DNA 1: CAATCTGAATTCCGGTCTCCC
DNA 2: TGGTGGCTACGACGGGATT
B12: GCAAGGU (DNA:RNA)
RNA: B2 RNA with C25G, C27A, U29G, C30G, G31U
DNA 1: CAATCTGAATTCCGGTCTCCC
DNA 2: TGGTGGCTACGACGGGATT
B13: ACUGUAU (DNA:RNA)
RNA: B2 RNA with C25A, C27U, A28G, C30A, G31U
DNA 1: CAATCTGAATTCCGGTCTCCC
DNA 2: TGGTGGCTACGACGGGATT
B14: AACACUA (DNA:RNA)
RNA: B1 RNA with U25A, G27C, C28A, A29C
DNA 1: CAATCTGAATTCCGGTCTCCC
DNA 2: TGGTGGCTACGACGGGATT
B15: GAGGCGC (DNA:RNA)
RNA: B1 RNA with U25G, C28G, A29C, U30G, A31C
DNA 1: CAATCTGAATTCCGGTCTCCC
DNA 2: TGGTGGCTACGACGGGATT
B16: CUCGGUU (DNA:RNA)
RNA: B2 RNA with C26U, A28G, U29G, C30U, G31U
DNA 1: CAATCTGAATTCCGGTCTCCC
DNA 2: TGGTGGCTACGACGGGATT
B17: UUCGCUC (DNA:RNA)
RNA: B1 RNA with A26U, G27C, C28G, A29C, A31C
DNA 1: CAATCTGAATTCCGGTCTCCC
DNA 2: TGGTGGCTACGACGGGATT
B18: ACGCCAU (DNA:RNA)
RNA: B1 RNA with U25A, A26C, A29C, U30A, A31U
DNA 1: CAATCTGAATTCCGGTCTCCC
DNA 2: TGGTGGCTACGACGGGATT
B19: CUCGAAA (DNA:RNA)
RNA: B2 RNA with C26U, A28G, U29A, C30A, G31A
DNA 1: CAATCTGAATTCCGGTCTCCC
DNA 2: TGGTGGCTACGACGGGATT
B20: GAGGUAG (DNA:RNA)
RNA: B2 RNA with C25G, C26A, C27G, A28G, C30A
DNA 1: CAATCTGAATTCCGGTCTCCC
DNA 2: TGGTGGCTACGACGGGATT
B21: ACAUUAC (DNA:RNA)
RNA: B2 RNA with C25A, C27A, A28U, C30A, G31C
DNA 1: CAATCTGAATTCCGGTCTCCC
DNA 2: TGGTGGCTACGACGGGATT
B22: UUCUAGA (DNA:RNA)
RNA: B1 RNA with A26U, G27C, C28U, U30G
DNA 1: CAATCTGAATTCCGGTCTCCC
DNA 2: TGGTGGCTACGACGGGATT
B23: CGGCCCG (DNA:RNA)
RNA: B2 RNA with C26G, C27G, A28C, U29C
DNA 1: CAATCTGAATTCCGGTCTCCC
DNA 2: TGGTGGCTACGACGGGATT
B24: UGCGGUC (DNA:RNA)
RNA: B1 RNA with A26G, G27C, C28G, A29G, A31C
DNA 1: CAATCTGAATTCCGGTCTCCC
DNA 2: TGGTGGCTACGACGGGATT
B25: GGGCUCC (DNA:RNA)
RNA: B2 RNA with C25G, C26G, C27G, A28C, G31C
DNA 1: CAATCTGAATTCCGGTCTCCC
DNA 2: TGGTGGCTACGACGGGATT
B26: UAAGGGU (DNA:RNA)
RNA: B1 RNA with G27A, C28G, A29G, U30G, A31U
DNA 1: CAATCTGAATTCCGGTCTCCC
DNA 2: TGGTGGCTACGACGGGATT
B27: GGACUCA (DNA:RNA)
RNA: B2 RNA with C25G, C26G, C27A, A28C, G31A
DNA 1: CAATCTGAATTCCGGTCTCCC
DNA 2: TGGTGGCTACGACGGGATT
B28: GCCGGCC (DNA:RNA)
RNA: B2 RNA with C25G, A28G, U29G, G31C
DNA 1: CAATCTGAATTCCGGTCTCCC
DNA 2: TGGTGGCTACGACGGGATT
B29: CACCUAA (DNA:RNA)
RNA: B2 RNA with C26A, A28C, C30A, G31A
DNA 1: CAATCTGAATTCCGGTCTCCC
DNA 2: TGGTGGCTACGACGGGATT
B30: CAUGGCG (DNA:RNA)
RNA: B2 RNA with C26A, C27U, A28G, U29G
DNA 1: CAATCTGAATTCCGGTCTCCC
DNA 2: TGGTGGCTACGACGGGATT
B31: AGGGGCA (DNA:RNA)
RNA: B1 RNA with U25A, A26G, C28G, A29G, U30C
DNA 1: CAATCTGAATTCCGGTCTCCC
DNA 2: TGGTGGCTACGACGGGATT

What follows are binders tested against T1, RBFOX1 RRM RbFoxmut (Fox-RRM*) (assay: EMSA; HiTS-Eq, 1 nM pool, 10 min; buffer printed only for the single-RNA assays: 10 mM Tris pH 7.5, 150 mM NaCl, 3.4 mM EDTA, 0.001% NP-40, 30 C). Details: tags: His6 N-terminal (pET28a); label: 5' 32P.
How it was run: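 A pool of RNA with 7 randomized nucleotides, 5′-radiolabelled and with DNA-annealed flanks, was equilibrated at 1 nM for 10 min in 50 µL with purified RbFox RRM, wild type or mutant, across increasing protein concentrations. Free RNA was separated by 8% native PAGE, excised, reverse-transcribed, barcoded by PCR and sequenced. Relative association constants were obtained from read-count changes of each RNA species versus the control reaction and normalised to the cognate motif.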

Row | Binder | binding signal
1 | B1 | 0.0997 KA relative to UGCAUGU
2 | B2 | 0.0928 KA relative to UGCAUGU
3 | B3 | 0.0942 KA relative to UGCAUGU
4 | B4 | 0.0651 KA relative to UGCAUGU
5 | B5 | 0.0784 KA relative to UGCAUGU
6 | B6 | 0.0963 KA relative to UGCAUGU
7 | B7 | 0.067 KA relative to UGCAUGU
8 | B8 | 0.0584 KA relative to UGCAUGU
9 | B9 | 0.0755 KA relative to UGCAUGU
10 | B10 | 0.0909 KA relative to UGCAUGU
11 | B11 | 0.0607 KA relative to UGCAUGU
12 | B12 | 0.0777 KA relative to UGCAUGU
13 | B13 | 0.159 KA relative to UGCAUGU
14 | B14 | 0.0893 KA relative to UGCAUGU
15 | B15 | 0.112 KA relative to UGCAUGU
16 | B16 | 0.0952 KA relative to UGCAUGU

Row | Binder | binding signal
17 | B17 | 0.0629 KA relative to UGCAUGU
18 | B18 | 0.0658 KA relative to UGCAUGU
19 | B19 | 0.0863 KA relative to UGCAUGU
20 | B20 | 0.151 KA relative to UGCAUGU
21 | B21 | 0.0999 KA relative to UGCAUGU
22 | B22 | 0.0984 KA relative to UGCAUGU
23 | B23 | 0.12 KA relative to UGCAUGU
24 | B24 | 0.197 KA relative to UGCAUGU
25 | B25 | 0.0437 KA relative to UGCAUGU
26 | B26 | 0.0766 KA relative to UGCAUGU
27 | B27 | 0.0918 KA relative to UGCAUGU
28 | B28 | 0.192 KA relative to UGCAUGU
29 | B29 | 0.0988 KA relative to UGCAUGU
30 | B30 | 0.143 KA relative to UGCAUGU
31 | B31 | 0.12 KA relative to UGCAUGU
